# Laboratory results taken from PubChem BioAssay AID624417 (National Center for Advancing Translational Sciences (NCATS), 2012).
# Values joined by “and” are separate entries in the source; they are usually repeats but may differ in a detail not shown here. Equal entries are not always repeated. The campaign covered roughly 410,000 compounds. About 6,400 (1.6%) were called active. The inconclusive results got no clear call from the source; some entries with a clear call stand among them for comparison. Calls come from the whole dose curve; as a rule, active = well fitted inhibition curve with a large enough effect; inconclusive = small, poorly fitted or top-dose-only effect; inactive = no such curve, though single readings can be large or run the other way. Potencies of inconclusive entries are doubtful fits and often do not repeat.
# Target: Glucagon-like peptide 1 receptor (Homo sapiens) (UniProt P43220)
# UniProt P43220, sequence (P43220 whole entry, looked up): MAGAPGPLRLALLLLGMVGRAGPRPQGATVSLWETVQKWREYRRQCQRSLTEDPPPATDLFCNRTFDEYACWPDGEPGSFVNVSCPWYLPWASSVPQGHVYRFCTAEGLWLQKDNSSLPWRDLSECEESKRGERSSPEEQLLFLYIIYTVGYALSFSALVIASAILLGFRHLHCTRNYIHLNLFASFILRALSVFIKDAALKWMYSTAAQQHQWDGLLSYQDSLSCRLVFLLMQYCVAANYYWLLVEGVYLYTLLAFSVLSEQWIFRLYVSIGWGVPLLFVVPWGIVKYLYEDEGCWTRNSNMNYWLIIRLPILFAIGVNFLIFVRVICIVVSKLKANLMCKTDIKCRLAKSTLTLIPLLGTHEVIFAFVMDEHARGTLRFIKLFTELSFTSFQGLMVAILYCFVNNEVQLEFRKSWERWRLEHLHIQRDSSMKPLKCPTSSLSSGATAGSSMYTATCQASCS
# Experiment: qHTS of GLP-1 Receptor Inverse Agonists (Inhibition Mode); note: nearly all actives have a fitted effect of over 55% in size
# Conditions: HEK293 GLP-1R CRE-luciferase, luminescence, 24 h, GLP-1R form is constitutively active; series mostly up to 38.3 µM
# In short: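 Seeding at 200 cells/uL, 12 h culture, 24 hr compound treatment, then luciferase reagent and a luminescence read; cells are HEK293 stably expressing a constitutively active GLP-1R plus cAMP-responsive luciferase.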
# Potency is the fitted concentration of half-maximal effect; tags give direction and shape of the fitted curve.
row,Compound,Potency
1,CC(C)C1C(=O)N(Cc2cn(Cc3ccco3)nn2)CCS(=O)(=O)N1Cc1ccc(-c2ccc(F)cc2)cc1 (stereo not drawn),"inconclusive: 11.2 µM [inhibitor, single point]"
2,O=C(Nc1cccc(-n2cnnn2)c1)c1cc(Cl)ccc1Cl,"inconclusive: 11.2 µM [inhibitor, single point]"
3,CC(=O)c1cc(F)ccc1OCC(=O)Nc1ccc2c(c1)OCO2,inactive
4,Cc1cc(C)cc(NS(=O)(=O)c2ccc3[nH]cc(C(=O)NCc4ccco4)c(=O)c3c2)c1,"inconclusive: 31.6 µM [inhibitor, partial curve, poor fit] and inconclusive: 10 µM [inhibitor, partial curve, poor fit]"
5,CC1=C(C(=O)N2CCCCCC2)CC(CC(=O)NC2CCCCC2)C(=O)N1Cc1ccc(C(C)(C)C)cc1 (stereo not drawn),"inconclusive: 28.2 µM [inhibitor, single point]"
6,COc1cccc(NC(=O)CCc2nnc3n(CC(C)C)c(=O)c4ccccc4n23)c1,inactive
7,O=C(COc1ccc(Br)cc1Br)NC(=O)NC1CCCC1,"inconclusive: 28.2 µM [inhibitor, single point]"
8,Cc1nc2ccc(NC(=O)c3cccc(S(=O)(=O)N4CC(C)OC(C)C4)c3)cc2s1 (stereo not drawn),"inconclusive: 3.16 µM [inhibitor, full curve, poor fit]"
9,Cc1ccc(C2N(c3ccccc3)C(=S)N3CCCN23)cc1 (stereo not drawn),"inconclusive: 28.2 µM [inhibitor, single point]"
10,O=c1[nH]c2ccc(NC(=S)NC3CCCCC3)cc2[nH]1,"inconclusive: 1.12 µM [inhibitor, full curve, poor fit]"
11,COc1cccc(C(=O)NC2CC3CCCC(C2)N3Cc2ccc(C)cc2)c1 (stereo not drawn),"inconclusive: 10 µM [inhibitor, partial curve, poor fit]"
12,O=C(O)CN(c1ccccn1)S(=O)(=O)c1ccc(Cl)cc1,inactive
13,CCOc1ccccc1/C=N/Nc1cc(C)nc2ccc(C)cc12,"inconclusive: 28.2 µM [inhibitor, single point]"
14,COc1ccc(Br)cc1CNC(=O)c1ccc(-n2c(C)cc3c2CCC(C)C3)cc1 (stereo not drawn),inactive
15,COc1ccccc1-n1c2c(cc(C(=O)N3CCC(C)CC3)c1=O)C(=O)CC(C)(C)C2,"inconclusive: 28.2 µM [inhibitor, single point]"
16,Cc1ccc(Nc2nnc(SCC(=O)c3cc4ccccc4o3)s2)cc1C,"inconclusive: 10 µM [inhibitor, partial curve, poor fit]"
17,Cc1ccc(S(=O)(=O)N2CCCCC2)cc1NS(=O)(=O)c1ccccc1F,"inconclusive: 5.62 µM [inhibitor, partial curve, poor fit]"
18,COCC1CCN(C(=O)c2cc(COc3ccc4c(c3)CCCC4)on2)C1 (stereo not drawn),"inconclusive: 28.2 µM [inhibitor, single point]"
19,Cc1cccc(C(=O)Nc2nnc(S(=O)(=O)N3c4ccccc4CC3C)s2)c1 (stereo not drawn),"inconclusive: 10 µM [inhibitor, partial curve, poor fit]"
20,CCc1ccc2c(c1)C1(C(=O)N2)N2CCCC2C(C(=O)c2ccc3ccccc3c2)C12C(=O)Nc1ccccc12 (stereo not drawn),"inconclusive: 11.2 µM [inhibitor, partial curve, poor fit]"
21,COc1ccc(N(C)C(=O)c2cc3c(s2)-c2ccccc2OC3)c(OC)c1,"inconclusive: 11.2 µM [inhibitor, single point]"

row,Compound,Potency
1,CC(C)(C)N1C(=O)[C@H]2[C@@H](c3ccc(Br)cc3)N3C(=O)N(c4ccccc4)C(=O)[C@@]3(Cc3ccccc3)[C@H]2C1=O,"inconclusive: 11.2 µM [inhibitor, partial curve, poor fit]"
2,COc1ccc(CN(C)C(=O)COc2cccc(-n3cnnn3)c2)cc1OC,inactive
3,CC1=C(c2ccccc2)SC2=NCCN21,inactive
4,CCOC(=O)C1CCN(C(c2cccnc2)c2c(NC(=O)c3ccco3)sc(C)c2C)CC1 (stereo not drawn),"inconclusive: 22.4 µM [inhibitor, partial curve, poor fit]"
5,C=CCC1(CC=C)CCCN1C(=O)CC1C(=O)NCCN1Cc1ccccc1OC (stereo not drawn),"inconclusive: 28.2 µM [inhibitor, single point]"
6,O=C(CSc1nnc(CNc2ccc(F)cc2)n1CC1CCCO1)Nc1ccccc1 (stereo not drawn),"inconclusive: 10 µM [inhibitor, partial curve, poor fit]"
7,COc1ccc(OCC(=O)N2CCN(c3nnc(-c4ccc(C)cc4)c4ccccc34)CC2)cc1,"inconclusive: 4.47 µM [inhibitor, partial curve, poor fit]"
8,O=[N+]([O-])c1ccc(N/N=C2/CCCCC2c2ccccn2)cc1 (stereo not drawn),active: 1.26 µM
9,CC(C)(C)c1nn(-c2ccccc2)c2[nH]c(=O)c(CNc3ccc4c(c3)OCCO4)cc12,"inconclusive: 12.6 µM [inhibitor, partial curve, poor fit]"
10,CCCN(C(=O)Cn1nc(Cc2ccncc2)c2ccccc2c1=O)c1ccccc1C,inactive
11,COc1ccc(CNS(=O)(=O)CCNC(=O)c2ccc3c(c2)OCO3)cc1,inactive
12,COc1cc(NC(=O)CN(c2ccc(C)cc2)S(=O)(=O)c2c(C)noc2C)cc(OC)c1,"inconclusive: 2.51 µM [inhibitor, partial curve, poor fit]"
13,O=C(Nc1cccc(O)c1)c1cccc(NC(=O)c2cccs2)c1,"inconclusive: 7.94 µM [inhibitor, partial curve]"
14,COc1ccc(OC)c2c1CCC2=O,inactive
15,CN(CC(=O)Nc1cccc(F)c1)C(=O)COc1cccc2c1OC(C)(C)C2,"inconclusive: 17.8 µM [inhibitor, partial curve, poor fit]"
16,COc1ccc(C(N)c2csc(NC(=O)Nc3cccc(C(F)(F)F)c3)n2)cc1 (stereo not drawn),"inconclusive: 14.1 µM [inhibitor, single point]"
17,O=C(Nc1ccc(F)c(Cl)c1)N1CCCCCC1,inactive
18,CN(C)S(=O)(=O)c1cccc(NC(=O)C(c2ccccc2)c2ccccc2)c1,"inconclusive: 28.2 µM [inhibitor, single point]"
19,CCCc1ccc2oc(C(=O)N3CCCC3)c(C)c2c1,"inconclusive: 28.2 µM [inhibitor, single point]"
20,Cc1cc(C(O)c2ncc(-c3cccc(F)c3)[nH]2)ccc1F (stereo not drawn),"inconclusive: 12.6 µM [inhibitor, single point]"
21,CCOC(=O)c1sc(NC(=O)Nc2ccccc2F)nc1C,"inconclusive: 4.47 µM [inhibitor, partial curve]"

row,Compound,Potency
1,COCCNC(=O)c1ccc(Cl)c(Cl)c1,inactive
2,CC(=O)c1ccc(N2CCN(C(=O)Nc3ccc(F)cc3F)CC2)cc1,inactive
3,Cc1ccc(-c2nc(NCc3cccnc3)c3ccccc3n2)cc1,"inconclusive: 28.2 µM [inhibitor, single point]"
4,O=[N+]([O-])c1cccc(C(=Nc2cccc(Cl)c2)NO)c1,"inconclusive: 31.6 µM [inhibitor, single point]"
5,CCOc1ccc(OCC)c(NC(=O)CCn2c(=O)oc3ccccc32)c1,inactive
6,Cc1cc(C)nc(SC(C(=O)O)c2ccccc2)n1 (stereo not drawn),inactive
7,COc1ccc([C@@H]2Sc3cc(OC)ccc3N(CCN(C(C)C)C(C)C)C(=O)[C@H]2OC(C)=O)cc1,inactive
8,Cn1c(CNC(=O)Nc2ccccc2Cl)nnc1SCc1ccccc1,"inconclusive: 11.2 µM [inhibitor, partial curve, poor fit]"
9,Cc1ccccc1CN1C(=O)C(O)(CC(=O)c2cccc(Br)c2)c2ccccc21 (stereo not drawn),"inconclusive: 28.2 µM [inhibitor, single point]"
10,O=C(Cc1cccc2ccccc12)Nc1ccc(Br)cc1C(=O)O,"inconclusive: 12.6 µM [inhibitor, partial curve, poor fit]"
11,CCN(C(=O)COC(=O)/C(=C/c1ccccc1)n1nnnc1C)C1CCCCC1,"inconclusive: 5.62 µM [inhibitor, partial curve, poor fit]"
12,CN(Cc1ccc(F)cc1)C(=O)c1cccc(S(=O)(=O)N2CCN(Cc3ccccc3)CC2)c1,"inconclusive: 28.2 µM [inhibitor, single point]"
13,CCc1ccc(CNC(=O)c2sc3ncnc(N(C)C4CCCCC4)c3c2C)cc1,"inconclusive: 28.2 µM [inhibitor, single point]"
14,CCN(CC(=O)Nc1ccc2c(c1)OCCO2)C(=O)/C=C/c1cccc(C(F)(F)F)c1,"inconclusive: 12.6 µM [inhibitor, single point]"
15,C[C@H]1CN([C@@H](C)CO)C(=O)CCCn2cc(nn2)CO[C@@H]1CN(C)S(=O)(=O)c1ccc2ccccc2c1,inactive
16,CN(Cc1nccs1)C(=O)c1ccc(OC2CCN(CCc3ccccc3)CC2)cc1,"inconclusive: 28.2 µM [inhibitor, single point]"
17,COc1cc(OC)cc(-c2cc3ccc(OC)cc3cn2)c1,"inconclusive: 7.94 µM [inhibitor, partial curve, poor fit]"
18,CSCCC(NC(=O)COc1ccccc1)C(=O)Nc1ccc(C)cc1 (stereo not drawn),"inconclusive: 22.4 µM [inhibitor, single point]"
19,O=C(CN1CCc2cc3c(cc2C1)OCCCO3)Nc1cccc(Br)c1,"inconclusive: 12.6 µM [inhibitor, partial curve, poor fit]"
20,COc1ccc(Nc2cc(C)nc3ccc(OC)cc23)cc1,"inconclusive: 20 µM [inhibitor, single point]"
21,O=C(/C=C/c1ccc(Br)cc1)N1CCN(Cc2ccccc2)CC1,"inconclusive: 8.91 µM [inhibitor, partial curve, poor fit]"
